Assay results published in the supplement of paper PMC4967469.

Compound: O=C1NC(=NCc2cccs2)S/C1=C\c1ccc2ncccc2c1 [RO-3306]
Assay: Viability of human cancer cell lines after 72 h of drug (GDSC screen)
Conditions: top dose 5 µM; top dose inferred
Method: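 Human cancer cell lines in 384-well plates, medium with 10% serum, drug for 72 h over a 256-fold dose range (nine 2-fold or five 4-fold steps up to the top dose). Adherent lines were fixed and stained with the nucleic acid dye Syto60, suspension lines read with resazurin; signal relative to control wells, capped at 0 and 100%. One two-parameter sigmoid per drug and line, fitted in a mixed model over all curves with the slope shared within a line.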

MDA-MB-157 (breast, adherent)
AUC: 0.978 | IC50: > 5 µM

MDA-MB-231 (breast, adherent)
AUC: 0.979 | IC50: > 5 µM

MDA-MB-330 (breast, adherent)
AUC: 0.917 | IC50: > 5 µM

MDA-MB-361 (breast, adherent)
AUC: 0.98 | IC50: > 5 µM

MDA-MB-415 (breast, adherent)
AUC: 0.978 | IC50: > 5 µM

MDA-MB-436 (breast, adherent)
AUC: 0.968 | IC50: > 5 µM

MDA-MB-453 (breast, adherent)
AUC: 0.977 | IC50: > 5 µM

MDA-MB-468 (breast, adherent)
AUC: 0.792 | IC50: 2.18 µM

MDST8 (large intestine, adherent)
AUC: 0.954 | IC50: > 5 µM

ME-1 (acute myeloid leukaemia, suspension)
AUC: 0.987 | IC50: > 5 µM

ME-180 (cervix, adherent)
AUC: 0.84 | IC50: 3.67 µM

MEG-01 (chronic myeloid leukaemia, suspension)
AUC: 0.981 | IC50: > 5 µM

MEL-HO (melanoma, adherent)
AUC: 0.981 | IC50: > 5 µM

MEL-JUSO (melanoma, adherent)
AUC: 0.947 | IC50: > 5 µM

MES-SA (uterus, adherent)
AUC: 0.953 | IC50: > 5 µM

MFE-280 (endometrium, adherent)
AUC: 0.982 | IC50: > 5 µM

MFE-296 (endometrium, adherent)
AUC: 0.906 | IC50: > 5 µM

MFE-319 (endometrium, adherent)
AUC: 0.932 | IC50: > 5 µM

MFH-ino (soft tissue, adherent)
AUC: 0.976 | IC50: > 5 µM

MFM-223 (breast, adherent)
AUC: 0.987 | IC50: > 5 µM

MG-63 (osteosarcoma, adherent)
AUC: 0.984 | IC50: > 5 µM

MHH-CALL-2 (B-cell leukaemia, suspension)
AUC: 0.992 | IC50: > 5 µM

MHH-ES-1 (Ewing sarcoma, adherent)
AUC: 0.946 | IC50: > 5 µM

MHH-NB-11 (neuroblastoma, adherent)
AUC: 0.985 | IC50: > 5 µM

MHH-PREB-1 (B-cell leukaemia, suspension)
AUC: 0.981 | IC50: > 5 µM

MIA-PaCa-2 (pancreas, adherent)
AUC: 0.894 | IC50: > 5 µM

MKN1 (stomach, adherent)
AUC: 0.949 | IC50: > 5 µM

MKN7 (stomach, adherent)
AUC: 0.964 | IC50: > 5 µM

MKN28 (stomach, adherent)
AUC: 0.978 | IC50: > 5 µM

ML-2 (acute myeloid leukaemia, suspension)
AUC: 0.986 | IC50: > 5 µM

MLMA (hairy cell leukaemia, semi-adherent)
AUC: 0.953 | IC50: > 5 µM

MM1S (myeloma, suspension)
AUC: 0.968 | IC50: > 5 µM

MMAC-SF (melanoma, adherent)
AUC: 0.934 | IC50: > 5 µM

MN-60 (B-cell leukaemia, suspension)
AUC: 0.984 | IC50: > 5 µM

MOG-G-CCM (glioma, adherent)
AUC: 0.962 | IC50: > 5 µM

MOG-G-UVW (glioma, adherent)
AUC: 0.869 | IC50: 4.41 µM

MOLM-13 (acute myeloid leukaemia, suspension)
AUC: 0.957 | IC50: > 5 µM

MOLM-16 (acute myeloid leukaemia, suspension)
AUC: 0.873 | IC50: 3.83 µM

MOLP-8 (myeloma, suspension)
AUC: 0.971 | IC50: > 5 µM

MOLT-4 (lymphoblastic leukaemia, suspension)
AUC: 0.963 | IC50: > 5 µM

MOLT-13 (T-cell lymphoblastic leukaemia, suspension)
AUC: 0.975 | IC50: > 5 µM

MOLT-16 (T-cell lymphoblastic leukaemia, suspension)
AUC: 0.966 | IC50: > 5 µM

MONO-MAC-6 (acute myeloid leukaemia, suspension)
AUC: 0.979 | IC50: > 5 µM

MPP-89 (mesothelioma, adherent)
AUC: 0.887 | IC50: > 5 µM

MRK-nu-1 (breast, suspension)
AUC: 0.978 | IC50: > 5 µM

MS751 (cervix, adherent)
AUC: 0.941 | IC50: > 5 µM

MS-1 (small cell lung carcinoma, suspension)
AUC: 0.991 | IC50: > 5 µM

MSTO-211H (mesothelioma, adherent)
AUC: 0.988 | IC50: > 5 µM

MV-4-11 (leukaemia, suspension)
AUC: 0.826 | IC50: 2.32 µM

MY-M12 (leukaemia, suspension)
AUC: 0.981 | IC50: > 5 µM

MZ1-PC (pancreas, adherent)
AUC: 0.962 | IC50: > 5 µM

MZ2-MEL (melanoma, adherent)
AUC: 0.849 | IC50: 4.78 µM

MZ7-mel (melanoma, adherent)
AUC: 0.987 | IC50: > 5 µM

Mo-T (hairy cell leukaemia, suspension)
AUC: 0.967 | IC50: > 5 µM

NALM-6 (B-cell leukaemia, suspension)
AUC: 0.985 | IC50: > 5 µM

NAMALWA (Burkitt lymphoma, suspension)
AUC: 0.986 | IC50: > 5 µM

NB1 (neuroblastoma, semi-adherent)
AUC: 0.982 | IC50: > 5 µM

NB5 (neuroblastoma, adherent)
AUC: 0.986 | IC50: > 5 µM

NB6 (neuroblastoma, adherent)
AUC: 0.937 | IC50: > 5 µM

NB7 (neuroblastoma, adherent)
AUC: 0.986 | IC50: > 5 µM

NB10 (neuroblastoma, adherent)
AUC: 0.963 | IC50: > 5 µM

NB12 (neuroblastoma, adherent)
AUC: 0.979 | IC50: > 5 µM

NB13 (neuroblastoma, adherent)
AUC: 0.893 | IC50: 4.75 µM

NB14 (neuroblastoma, adherent)
AUC: 0.794 | IC50: 2.15 µM

NB17 (neuroblastoma, adherent)
AUC: 0.984 | IC50: > 5 µM

NB69 (neuroblastoma, adherent)
AUC: 0.981 | IC50: > 5 µM

NB(TU)1-10 (neuroblastoma, adherent)
AUC: 0.951 | IC50: > 5 µM

NB-4 (acute myeloid leukaemia, suspension)
AUC: 0.989 | IC50: > 5 µM

NCC010 (kidney, adherent)
AUC: 0.89 | IC50: > 5 µM

NCC021 (kidney, adherent)
AUC: 0.954 | IC50: > 5 µM

NCI-H23 (lung adenocarcinoma, adherent)
AUC: 0.864 | IC50: 4.31 µM

NCI-H28 (mesothelioma, adherent)
AUC: 0.915 | IC50: > 5 µM

NCI-H64 (small cell lung carcinoma, suspension)
AUC: 0.988 | IC50: > 5 µM

NCI-H69 (small cell lung carcinoma, suspension)
AUC: 0.986 | IC50: > 5 µM

NCI-H82 (small cell lung carcinoma, suspension)
AUC: 0.99 | IC50: > 5 µM

NCI-H146 (small cell lung carcinoma, suspension)
AUC: 0.992 | IC50: > 5 µM

NCI-H187 (small cell lung carcinoma, suspension)
AUC: 0.987 | IC50: > 5 µM

NCI-H209 (small cell lung carcinoma, suspension)
AUC: 0.92 | IC50: > 5 µM

IC50 is the fitted dose that halves viability relative to control wells, and lower means more sensitive; where the fit passes the top or lowest dose, that dose stands as a limit. AUC, from the same fit, is the share of area under the viability curve across the 256-fold dose range; values near 1 show little effect. An inferred top dose was derived from the fitted curves, not read from the paper.
